In the supplement of paper PMC8728848:
The list shows a part of the results.

Assays:
Assay in all cases: glycan array binding signal (z-score within array); higher = stronger binding
Conditions in all cases: glycan notation: IUPAC condensed, linker removed; mutation: K348A
[1] = molecular target: GalNAc(b1-3)GalNAc
In short: (§1)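 The binding signal is a Z-score computed within each array. Data were drawn from 3228 arrays in the Consortium for Functional Glycomics database, restricted to those with a known protein sequence. Scores were averaged over arrays of the same protein sequence at different concentrations or buffers, and over linkers, and negative values can be taken as non-binding.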

[2] = molecular target: GalNAc(b1-4)GlcNAc
In short: as §1

[3] = molecular target: Glc(a1-4)Glc
In short: as §1

[4] = molecular target: Glc(a1-6)Glc(a1-6)Glc
In short: as §1

[5] = molecular target: Glc(b1-4)Glc
In short: as §1

[6] = molecular target: Glc(b1-6)Glc
In short: as §1

[7] = molecular target: GlcA(b1-3)Gal
In short: as §1

[8] = molecular target: GlcA(b1-3)GlcNAc
In short: as §1

[9] = molecular target: GlcA(b1-6)Gal
In short: as §1

[10] = molecular target: GlcNAc(a1-3)Gal(b1-4)GlcNAc
In short: as §1

[11] = molecular target: GlcNAc(a1-6)Gal(b1-4)GlcNAc
In short: as §1

[12] = molecular target: GlcNAc(b1-2)Gal(b1-3)GalNAc
In short: as §1

[13] = molecular target: GlcNAc(b1-2)Man(a1-3)[GlcNAc(b1-2)Man(a1-6)]Man(b1-4)GlcNAc(b1-4)GlcNAc
In short: as §1

[14] = molecular target: GlcNAc(b1-3)Gal
In short: as §1

[15] = molecular target: GlcNAc(b1-3)Gal(b1-3)GalNAc
In short: as §1

[16] = molecular target: GlcNAc(b1-3)Gal(b1-4)Glc
In short: as §1

[17] = molecular target: GlcNAc(b1-3)Gal(b1-4)GlcNAc
In short: as §1

[18] = molecular target: GlcNAc(b1-3)Gal(b1-4)GlcNAc(b1-3)Gal(b1-4)GlcNAc
In short: as §1

[19] = molecular target: GlcNAc(b1-3)GalNAc
In short: as §1

[20] = molecular target: GlcNAc(b1-3)Man
In short: as §1

[21] = molecular target: GlcNAc(b1-3)[GlcNAc(b1-4)][GlcNAc(b1-6)]GlcNAc
In short: as §1

[22] = molecular target: GlcNAc(b1-3)[GlcNAc(b1-6)]Gal(b1-4)GlcNAc
In short: as §1

[23] = molecular target: GlcNAc(b1-3)[GlcNAc(b1-6)]GalNAc
In short: as §1

[24] = molecular target: GlcNAc(b1-4)Gal(b1-4)GlcNAc
In short: as §1

[25] = molecular target: GlcNAc(b1-4)GlcNAc
In short: as §1

[26] = molecular target: GlcNAc(b1-4)GlcNAc(b1-4)GlcNAc
In short: as §1

[27] = molecular target: GlcNAc(b1-4)GlcNAc(b1-4)GlcNAc(b1-4)GlcNAc(b1-4)GlcNAc
In short: as §1

[28] = molecular target: GlcNAc(b1-4)GlcNAc(b1-4)GlcNAc(b1-4)GlcNAc(b1-4)GlcNAc(b1-4)GlcNAc
In short: as §1

[29] = molecular target: GlcNAc(b1-4)[GlcNAc(b1-6)]GalNAc
In short: as §1

[30] = molecular target: GlcNAc(b1-6)Gal(b1-4)GlcNAc
In short: as §1

[31] = molecular target: GlcNAc(b1-6)GalNAc
In short: as §1

[32] = molecular target: GlcNAc3Prop(b1-4)GlcNAc
In short: as §1

[33] = molecular target: Kdn(a2-3)Gal(b1-3)GlcNAc
In short: as §1

[34] = molecular target: Kdn(a2-3)Gal(b1-4)GlcNAc
In short: as §1

[35] = molecular target: Man(a1-2)Man(a1-2)Man(a1-3)Man
In short: as §1

[36] = molecular target: Man(a1-2)Man(a1-2)Man(a1-6)[Man(a1-3)]Man
In short: as §1

[37] = molecular target: Man(a1-2)Man(a1-3)Man
In short: as §1

[38] = molecular target: Man(a1-2)Man(a1-3)[Man(a1-2)Man(a1-6)]Man
In short: as §1

[39] = molecular target: Man(a1-2)Man(a1-3)[Man(a1-2)Man(a1-6)]Man(a1-6)[Man(a1-2)Man(a1-2)Man(a1-3)]Man
In short: as §1

[40] = molecular target: Man(a1-2)Man(a1-3)[Man(a1-2)Man(a1-6)]Man(a1-6)[Man(a1-2)Man(a1-2)Man(a1-3)]Man(b1-4)GlcNAc(b1-4)GlcNAc
In short: as §1

[41] = molecular target: Man(a1-2)Man(a1-3)[Man(a1-6)]Man(a1-6)[Man(a1-2)Man(a1-3)]Man(b1-4)GlcNAc(b1-4)GlcNAc
In short: as §1

[42] = molecular target: Man(a1-2)Man(a1-6)[Man(a1-3)]Man(a1-6)[Man(a1-2)Man(a1-2)Man(a1-3)]Man
In short: as §1

[43] = molecular target: Man(a1-2)Man(a1-6)[Man(a1-3)]Man(a1-6)[Man(a1-2)Man(a1-2)Man(a1-3)]Man(b1-4)GlcNAc(b1-4)GlcNAc
In short: as §1

[44] = molecular target: Man(a1-3)[Man(a1-6)]Man
In short: as §1

[45] = molecular target: Man(a1-3)[Man(a1-6)]Man(a1-6)[Man(a1-2)Man(a1-3)]Man(b1-4)GlcNAc(b1-4)GlcNAc
In short: as §1

[46] = molecular target: Man(a1-3)[Man(a1-6)]Man(a1-6)[Man(a1-3)]Man
In short: as §1

[47] = molecular target: Man(a1-3)[Man(a1-6)]Man(a1-6)[Man(a1-3)]Man(b1-4)GlcNAc(b1-4)GlcNAc
In short: as §1

[48] = molecular target: Man(a1-3)[Man(a1-6)]Man(b1-4)GlcNAc(b1-4)GlcNAc
In short: as §1

[49] = molecular target: Man(a1-6)Man
In short: as §1

[50] = molecular target: Man(b1-4)GlcNAc
In short: as §1

[51] = molecular target: Neu5Ac(a2-3)Gal
In short: as §1

[52] = molecular target: Neu5Ac(a2-3)Gal(b1-3)GalNAc
In short: as §1

[53] = molecular target: Neu5Ac(a2-3)Gal(b1-3)GalNAc(b1-3)Gal(a1-4)Gal(b1-4)Glc
In short: as §1

[54] = molecular target: Neu5Ac(a2-3)Gal(b1-3)GalNAc(b1-3)Gal(b1-4)GlcNAc
In short: as §1

[55] = molecular target: Neu5Ac(a2-3)Gal(b1-3)GalNAc(b1-4)[Neu5Ac(a2-3)]Gal(b1-4)Glc
In short: as §1

[56] = molecular target: Neu5Ac(a2-3)Gal(b1-3)GalNAc6S
In short: as §1

[57] = molecular target: Neu5Ac(a2-3)Gal(b1-3)GlcNAc
In short: as §1

[58] = molecular target: Neu5Ac(a2-3)Gal(b1-3)GlcNAc(b1-3)Gal(b1-3)GlcNAc
In short: as §1

[59] = molecular target: Neu5Ac(a2-3)Gal(b1-3)GlcNAc6S
In short: as §1

B1: Surfactant Protein D (Human); Neck + Carbohydrate Recognition Domain (NCRD) (Homo sapiens) (protein)
chain: MLLFLLSALVLLTQPLGYLEAEMKTYSHRTMPSACTLVMCSSVESGLPGRDRDGREGPRGEKGDPGLPGAAGQAGMPGQAGPVGPKGDNGSVGEPGPKGDTGPSGPPGPPGVPGPAGREGALGKQGNIGPQGKPGPKGEAGPKGEVGAPGMQGSAGARGLAGPKGERGVPGERGVPGNTGAAGSAGAMGPQGSPGARGPPGLKGDKGIPGDKGAKGESGLPDVASLRQQVEALQGQVQHLQAAFSQYKKVELFPNGQSVGEKIFKTAQFVKPFTEAQLLCTQAGGQLASPRSAAENAALQQLVVAKNEAAFLSMTDSKTEGKFTYPTGESLVYSNWAPGEPNDDGGSEDCVEIFTNGKWNDRACGEARLVVCEF
[1]
  glycan array binding signal (z-score): -0.172
[2]
  glycan array binding signal (z-score): -0.165
[3]
  glycan array binding signal (z-score): -0.171
[4]
  glycan array binding signal (z-score): -0.172
[5]
  glycan array binding signal (z-score): -0.16
[6]
  glycan array binding signal (z-score): -0.169
[7]
  glycan array binding signal (z-score): -0.174
[8]
  glycan array binding signal (z-score): -0.16
[9]
  glycan array binding signal (z-score): -0.094
[10]
  glycan array binding signal (z-score): -0.161
[11]
  glycan array binding signal (z-score): -0.175
[12]
  glycan array binding signal (z-score): -0.166
[13]
  glycan array binding signal (z-score): -0.134
[14]
  glycan array binding signal (z-score): -0.158
[15]
  glycan array binding signal (z-score): -0.172
[16]
  glycan array binding signal (z-score): -0.178
[17]
  glycan array binding signal (z-score): -0.165
[18]
  glycan array binding signal (z-score): -0.175
[19]
  glycan array binding signal (z-score): -0.179
[20]
  glycan array binding signal (z-score): -0.18
[21]
  glycan array binding signal (z-score): -0.167
[22]
  glycan array binding signal (z-score): -0.177
[23]
  glycan array binding signal (z-score): -0.173
[24]
  glycan array binding signal (z-score): -0.163
[25]
  glycan array binding signal (z-score): -0.146
[26]
  glycan array binding signal (z-score): -0.125
[27]
  glycan array binding signal (z-score): -0.173
[28]
  glycan array binding signal (z-score): -0.169
[29]
  glycan array binding signal (z-score): -0.164
[30]
  glycan array binding signal (z-score): -0.175
[31]
  glycan array binding signal (z-score): -0.177
[32]
  glycan array binding signal (z-score): -0.144
[33]
  glycan array binding signal (z-score): -0.157
[34]
  glycan array binding signal (z-score): -0.156
[35]
  glycan array binding signal (z-score): 2.46
[36]
  glycan array binding signal (z-score): 8.57
[37]
  glycan array binding signal (z-score): 1.49
[38]
  glycan array binding signal (z-score): 7.38
[39]
  glycan array binding signal (z-score): 8.69
[40]
  glycan array binding signal (z-score): -0.073
[41]
  glycan array binding signal (z-score): 1.29
[42]
  glycan array binding signal (z-score): 1.2
[43]
  glycan array binding signal (z-score): 1.61
[44]
  glycan array binding signal (z-score): -0.179
[45]
  glycan array binding signal (z-score): 6.04
[46]
  glycan array binding signal (z-score): 6.52
[47]
  glycan array binding signal (z-score): 0.736
[48]
  glycan array binding signal (z-score): -0.116
[49]
  glycan array binding signal (z-score): -0.153
[50]
  glycan array binding signal (z-score): -0.178
[51]
  glycan array binding signal (z-score): -0.173
[52]
  glycan array binding signal (z-score): -0.033
[53]
  glycan array binding signal (z-score): -0.169
[54]
  glycan array binding signal (z-score): -0.168
[55]
  glycan array binding signal (z-score): -0.156
[56]
  glycan array binding signal (z-score): -0.163
[57]
  glycan array binding signal (z-score): -0.134
[58]
  glycan array binding signal (z-score): -0.165
[59]
  glycan array binding signal (z-score): -0.17
